# Measurements taken from the supplement of paper PMC8728848.
# Some of the results follow.
# B1: Als3-2 (Candida albicans) (protein)
# chain: KTITGVFNSFNSLTWSNAATYNYKGPGTPTWNAVLGWSLDGTSASPGDTFTLNMPCVFKFTTSQTSVDLTAHGVKYATCQFQAGEEFMTFSTLTCTVSNTLTPSIKALGTVTLPLAFNVGGTGSSVDLEDSKCFTAGTNTVTFNDGGKKISINVDFERSNVDPKGYLTD
# What was measured:
# Experiment in all cases: glycan array binding signal (z-score within array); higher = stronger binding
# Conditions in all cases: glycan notation: IUPAC condensed, linker removed
# [1] = target: Man(a1-2)Man(a1-3)[Man(a1-2)Man(a1-6)]Man(a1-6)[Man(a1-2)Man(a1-2)Man(a1-3)]Man
# Procedure, shortened: (§1)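 Negative Z-scores can be read as non-binding. The Z-score is calculated within each array and then averaged across arrays of one protein sequence at different concentrations or buffers and across linkers. Arrays, 3228 in all, were curated from the Consortium for Functional Glycomics database and kept only where the protein sequence was available.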
# [2] = target: Man(a1-2)Man(a1-3)[Man(a1-2)Man(a1-6)]Man(a1-6)[Man(a1-2)Man(a1-2)Man(a1-3)]Man(b1-4)GlcNAc(b1-4)GlcNAc
# Procedure, shortened: as §1
# [3] = target: Man(a1-2)Man(a1-3)[Man(a1-6)]Man(a1-6)[Man(a1-2)Man(a1-3)]Man(b1-4)GlcNAc(b1-4)GlcNAc
# Procedure, shortened: as §1
# [4] = target: Man(a1-2)Man(a1-6)[Man(a1-3)]Man(a1-6)[Man(a1-2)Man(a1-2)Man(a1-3)]Man
# Procedure, shortened: as §1
# [5] = target: Man(a1-2)Man(a1-6)[Man(a1-3)]Man(a1-6)[Man(a1-2)Man(a1-2)Man(a1-3)]Man(b1-4)GlcNAc(b1-4)GlcNAc
# Procedure, shortened: as §1
# Man(a1-3)[Man(a1-6)]Man = target: Man(a1-3)[Man(a1-6)]Man
# Procedure, shortened: as §1
# [6] = target: Man(a1-3)[Man(a1-6)]Man(a1-6)[Man(a1-2)Man(a1-3)]Man(b1-4)GlcNAc(b1-4)GlcNAc
# Procedure, shortened: as §1
# [7] = target: Man(a1-3)[Man(a1-6)]Man(a1-6)[Man(a1-3)]Man
# Procedure, shortened: as §1
# [8] = target: Man(a1-3)[Man(a1-6)]Man(a1-6)[Man(a1-3)]Man(b1-4)GlcNAc(b1-4)GlcNAc
# Procedure, shortened: as §1
# [9] = target: Man(a1-3)[Man(a1-6)]Man(b1-4)GlcNAc(b1-4)GlcNAc
# Procedure, shortened: as §1
# [10] = target: Man(a1-3)[Man(a1-6)]Man(b1-4)GlcNAc(b1-4)[Fuc(a1-6)]GlcNAc
# Procedure, shortened: as §1
# Man(a1-6)Man = target: Man(a1-6)Man
# Procedure, shortened: as §1
# Man(b1-4)GlcNAc = target: Man(b1-4)GlcNAc
# Procedure, shortened: as §1
# MurNAc(b1-4)GlcNAc = target: MurNAc(b1-4)GlcNAc
# Procedure, shortened: as §1
# Neu5Ac(a2-3)Gal = target: Neu5Ac(a2-3)Gal
# Procedure, shortened: as §1
# [11] = target: Neu5Ac(a2-3)Gal(b1-3)GalNAc
# Procedure, shortened: as §1
# [12] = target: Neu5Ac(a2-3)Gal(b1-3)GalNAc(b1-3)Gal(a1-4)Gal(b1-4)Glc
# Procedure, shortened: as §1
# [13] = target: Neu5Ac(a2-3)Gal(b1-3)GalNAc(b1-4)[Neu5Ac(a2-3)]Gal(b1-4)Glc
# Procedure, shortened: as §1
# [14] = target: Neu5Ac(a2-3)Gal(b1-3)GalNAc(b1-4)[Neu5Ac(a2-8)Neu5Ac(a2-3)]Gal(b1-4)Glc
# Procedure, shortened: as §1
# [15] = target: Neu5Ac(a2-3)Gal(b1-3)GalNAc6S
# Procedure, shortened: as §1
# [16] = target: Neu5Ac(a2-3)Gal(b1-3)GlcNAc
# Procedure, shortened: as §1
# [17] = target: Neu5Ac(a2-3)Gal(b1-3)GlcNAc(b1-2)Man
# Procedure, shortened: as §1
# [18] = target: Neu5Ac(a2-3)Gal(b1-3)GlcNAc(b1-2)Man(a1-3)[GlcNAc(b1-4)][Neu5Ac(a2-3)Gal(b1-3)GlcNAc(b1-2)Man(a1-6)]Man(b1-4)GlcNAc(b1-4)GlcNAc
# Procedure, shortened: as §1
# [19] = target: Neu5Ac(a2-3)Gal(b1-3)GlcNAc(b1-2)Man(a1-3)[Neu5Ac(a2-3)Gal(b1-3)GlcNAc(b1-2)Man(a1-6)]Man(b1-4)GlcNAc(b1-4)GlcNAc
# Procedure, shortened: as §1
# [20] = target: Neu5Ac(a2-3)Gal(b1-3)GlcNAc(b1-3)Gal(b1-3)GlcNAc
# Procedure, shortened: as §1
# [21] = target: Neu5Ac(a2-3)Gal(b1-3)GlcNAc(b1-3)Gal(b1-4)GlcNAc
# Procedure, shortened: as §1
# [22] = target: Neu5Ac(a2-3)Gal(b1-3)GlcNAc(b1-3)GalNAc
# Procedure, shortened: as §1
# [23] = target: Neu5Ac(a2-3)Gal(b1-3)GlcNAc(b1-4)Gal(b1-4)Glc
# Procedure, shortened: as §1
# [24] = target: Neu5Ac(a2-3)Gal(b1-3)GlcNAc(b1-6)GalNAc
# Procedure, shortened: as §1
# [25] = target: Neu5Ac(a2-3)Gal(b1-3)GlcNAc6S
# Procedure, shortened: as §1
# [26] = target: Neu5Ac(a2-3)Gal(b1-3)[Fuc(a1-4)]GlcNAc
# Procedure, shortened: as §1
# [27] = target: Neu5Ac(a2-3)Gal(b1-3)[Fuc(a1-4)]GlcNAc(b1-3)Gal(b1-3)[Fuc(a1-4)]GlcNAc
# Procedure, shortened: as §1
# [28] = target: Neu5Ac(a2-3)Gal(b1-3)[Fuc(a1-4)]GlcNAc(b1-3)Gal(b1-4)[Fuc(a1-3)]GlcNAc
# Procedure, shortened: as §1
# [29] = target: Neu5Ac(a2-3)Gal(b1-3)[GlcNAc(b1-6)]GalNAc
# Procedure, shortened: as §1
# [30] = target: Neu5Ac(a2-3)Gal(b1-3)[Neu5Ac(a2-6)]GalNAc
# Procedure, shortened: as §1
# [31] = target: Neu5Ac(a2-3)Gal(b1-3)[Neu5Ac(a2-6)]GlcNAc(b1-3)[Fuc(a1-3)[Gal(b1-4)]GlcNAc(b1-6)]Gal(b1-4)Glc
# Procedure, shortened: as §1
# [32] = target: Neu5Ac(a2-3)Gal(b1-3)]Neu5Ac(a2-3)Gal(b1-4)]GlcNAc
# Procedure, shortened: as §1
# Neu5Ac(a2-3)Gal(b1-4)Glc = target: Neu5Ac(a2-3)Gal(b1-4)Glc
# Procedure, shortened: as §1
# [33] = target: Neu5Ac(a2-3)Gal(b1-4)GlcNAc
# Procedure, shortened: as §1
# [34] = target: Neu5Ac(a2-3)Gal(b1-4)GlcNAc(b1-2)Man
# Procedure, shortened: as §1
# [35] = target: Neu5Ac(a2-3)Gal(b1-4)GlcNAc(b1-2)Man(a1-3)[GlcNAc(b1-4)][Neu5Ac(a2-3)Gal(b1-4)GlcNAc(b1-2)Man(a1-6)]Man(b1-4)GlcNAc(b1-4)GlcNAc
# Procedure, shortened: as §1
# [36] = target: Neu5Ac(a2-3)Gal(b1-4)GlcNAc(b1-2)Man(a1-3)[Neu5Ac(a2-3)Gal(b1-4)GlcNAc(b1-2)Man(a1-6)]Man(b1-4)GlcNAc(b1-4)GlcNAc
# Procedure, shortened: as §1
# [37] = target: Neu5Ac(a2-3)Gal(b1-4)GlcNAc(b1-2)Man(a1-3)[Neu5Ac(a2-3)Gal(b1-4)GlcNAc(b1-2)Man(a1-6)]Man(b1-4)GlcNAc(b1-4)[Fuc(a1-6)]GlcNAc
# Procedure, shortened: as §1
# [38] = target: Neu5Ac(a2-3)Gal(b1-4)GlcNAc(b1-2)Man(a1-3)[Neu5Ac(a2-6)Gal(b1-4)GlcNAc(b1-2)Man(a1-6)]Man(b1-4)GlcNAc(b1-4)GlcNAc
# Procedure, shortened: as §1
# [39] = target: Neu5Ac(a2-3)Gal(b1-4)GlcNAc(b1-2)[Neu5Ac(a2-3)Gal(b1-4)GlcNAc(b1-4)]Man(a1-3)[GlcNAc(b1-4)][Neu5Ac(a2-3)Gal(b1-4)GlcNAc(b1-2)[Neu5Ac(a2-3)Gal(b1-4)GlcNAc(b1-6)]Man(a1-6)]Man(b1-4)GlcNAc(b1-4)GlcNAc
# Procedure, shortened: as §1
binder,measurement,setting,value
B1,glycan array binding signal (z-score),[1],-0.73
same,glycan array binding signal (z-score),[2],-0.659
same,glycan array binding signal (z-score),[3],-0.533
same,glycan array binding signal (z-score),[4],-0.575
same,glycan array binding signal (z-score),[5],-0.686
same,glycan array binding signal (z-score),Man(a1-3)[Man(a1-6)]Man,-0.509
same,glycan array binding signal (z-score),[6],0.214
same,glycan array binding signal (z-score),[7],0.168
same,glycan array binding signal (z-score),[8],0.023
same,glycan array binding signal (z-score),[9],-0.359
same,glycan array binding signal (z-score),[10],-0.591
same,glycan array binding signal (z-score),Man(a1-6)Man,-0.209
same,glycan array binding signal (z-score),Man(b1-4)GlcNAc,0.402
same,glycan array binding signal (z-score),MurNAc(b1-4)GlcNAc,-0.296
same,glycan array binding signal (z-score),Neu5Ac(a2-3)Gal,0.304
same,glycan array binding signal (z-score),[11],-0.648
same,glycan array binding signal (z-score),[12],-0.583
same,glycan array binding signal (z-score),[13],-0.612
same,glycan array binding signal (z-score),[14],-0.039
same,glycan array binding signal (z-score),[15],-0.657
same,glycan array binding signal (z-score),[16],-0.337
same,glycan array binding signal (z-score),[17],-0.126
same,glycan array binding signal (z-score),[18],-0.325
same,glycan array binding signal (z-score),[19],-0.393
same,glycan array binding signal (z-score),[20],-0.517
same,glycan array binding signal (z-score),[21],-0.648
same,glycan array binding signal (z-score),[22],-0.729
same,glycan array binding signal (z-score),[23],-0.296
same,glycan array binding signal (z-score),[24],1.45
same,glycan array binding signal (z-score),[25],-0.302
same,glycan array binding signal (z-score),[26],-0.237
same,glycan array binding signal (z-score),[27],-0.524
same,glycan array binding signal (z-score),[28],-0.614
same,glycan array binding signal (z-score),[29],1.2
same,glycan array binding signal (z-score),[30],-0.234
same,glycan array binding signal (z-score),[31],-0.634
same,glycan array binding signal (z-score),[32],2.16
same,glycan array binding signal (z-score),Neu5Ac(a2-3)Gal(b1-4)Glc,-0.386
same,glycan array binding signal (z-score),[33],-0.128
same,glycan array binding signal (z-score),[34],3.09
same,glycan array binding signal (z-score),[35],-0.624
same,glycan array binding signal (z-score),[36],1.26
same,glycan array binding signal (z-score),[37],-0.654
same,glycan array binding signal (z-score),[38],-0.401
same,glycan array binding signal (z-score),[39],3.2
